Assay [1] deals with A549-Dual. The experiment in a line: NF-kB reporter (SEAP) activity, viability-corrected, relative to vehicle (fold change vs vehicle); higher = more activation of STING-IRF / NF-kB immune response reporter. The note with it: 10 µM.
Assay [2] relates to A549-Dual. Nature of the assay: ISRE reporter (Lucia luciferase) activity, viability-corrected, relative to vehicle (fold change vs vehicle); higher = more activation of STING-IRF / NF-kB immune response reporter. Particulars: 10 µM.

Structures are written as SMILES. Some of the results follow. Single values of this set are uncertain. Values with irradiation are relative to irradiated vehicle.
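Throughout, for NF-kB reporter (SEAP) activity, viability-corrected, relative to vehicle: viability correction based on the alamar blue assay, with concentrations leaving 10% survival or less dropped.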

As to `CC(NCCC(c1ccccc1)c1ccccc1)c1ccccc1.Cl` (centres undefined) [Fendiline hydrochloride], the NF-kB reporter in assay [1] (irradiation: 8 Gy/4 fr) was determined as 1.09; in assay [1] (irradiation: none), 0.711. Moreover, the ISRE reporter came to 1.46 in assay [2] (irradiation: 8 Gy/4 fr) and 1.48 in assay [2] (irradiation: none).
For `COC(=O)/C=C/c1ccccc1` [Methyl cinnamate] the same measures were 0.9, 0.521, 0.786 and 0.536.
For the compound `CCCC(=O)OCC(OC(=O)CCC)C(OC(=O)CCC)C(Cn1c2nc(=O)[nH]c(=O)c-2nc2cc(C)c(C)cc21)OC(=O)CCC` (centres undefined) [Riboflavin Tetrabutyrate], the NF-kB reporter in assay [1] (irradiation: 8 Gy/4 fr) was found to be 0.87; in assay [1] (irradiation: none) it was 0.812. Moreover, the ISRE reporter in assay [2] (irradiation: 8 Gy/4 fr) stood at 0.636; in assay [2] (irradiation: none) it was 0.595.
Taken in the same sequence, the figures for `CC1OC(OC2C(CO)OC(OCC3OC(OC(=O)C45CCC(C)(C)CC4C4=CCC6C7(C)CCC(OC8OCC(O)C(O)C8OC8OC(C)C(O)C(O)C8O)C(C)(CO)C7CCC6(C)C4(C)CC5)C(O)C(O)C3O)C(O)C2O)C(O)C(O)C1O` (centres undefined) [Hederacoside C] were 0.807, 0.501, 0.766 and 0.606.
Regarding `CC(=O)SCC(Cc1ccccc1)C(=O)NCC(=O)OCc1ccccc1` (centres undefined) [Racecadotril], the NF-kB reporter in assay [1] (irradiation: 8 Gy/4 fr) turned out to be 0.758; in assay [1] (irradiation: none) it was 0.996. Besides, the ISRE reporter in assay [2] (irradiation: 8 Gy/4 fr) was 0.704; in assay [2] (irradiation: none), 0.788.
With `CN(Cc1cnc2nc(N)nc(N)c2n1)c1ccc(C(=O)NC(CCC(=O)[O-])C(=O)[O-])cc1.[Na+].[Na+]` (centres undefined) [Methotrexate disodium], the NF-kB reporter in assay [1] (irradiation: 8 Gy/4 fr) stood at 0.673; in assay [1] (irradiation: none), 1.87. The ISRE reporter in assay [2] (irradiation: 8 Gy/4 fr) worked out at 0.183; in assay [2] (irradiation: none), 0.959.
Take `Cc1onc(-c2c(Cl)cccc2Cl)c1C(=O)NC1C(=O)N2C1SC(C)(C)C2C(=O)[O][Na].O` (centres undefined) [Dicloxacillin Sodium]: the NF-kB reporter in assay [1] (irradiation: 8 Gy/4 fr) came out at 0.817; in assay [1] (irradiation: none), 1.03. Moreover, the ISRE reporter in assay [2] (irradiation: 8 Gy/4 fr) was found to be 0.822; in assay [2] (irradiation: none), 0.888.
Taken in the same sequence, the figures for `OCCc1ccccc1` [Phenethyl alcohol] were 0.804, 1.07, 0.771 and 0.842.
Regarding `N[C@@H](CC(=O)O)C(=O)O` [L-aspartic Acid], the NF-kB reporter in assay [1] (irradiation: 8 Gy/4 fr) was found to be 0.971; in assay [1] (irradiation: none) it was 0.704. In addition, the ISRE reporter in assay [2] (irradiation: 8 Gy/4 fr) worked out at 1.01; in assay [2] (irradiation: none), 0.642.
For `CS(=O)(=O)c1ccc(C(O)C(CF)NC(=O)C(Cl)Cl)cc1` (centres undefined) [Florfenicol] the same measures were 0.553, 0.855, 0.376 and 0.617.
`Cc1c(C)c2c(c(C)c1O)CCC(C)(COc1ccc(CC3SC(=O)NC3=O)cc1)O2` (centres undefined) [Troglitazone (CS-045)]: the values for the NF-kB reporter in assay [1] (irradiation: 8 Gy/4 fr) and in assay [1] (irradiation: none) were 0.297 and 0.411, respectively. Besides, the ISRE reporter in assay [2] (irradiation: 8 Gy/4 fr) amounted to 0.265; in assay [2] (irradiation: none), 0.504.
As to `CC#CC1(O)CCC2C3CCC4=CC(=O)CCC4=C3C(c3ccc(N(C)C)cc3)CC21C` (centres undefined) [Mifepristone], the NF-kB reporter in assay [1] (irradiation: 8 Gy/4 fr) came out at 0.33; in assay [1] (irradiation: none) it was 1.09. Further, the ISRE reporter is 0.248 in assay [2] (irradiation: 8 Gy/4 fr) and 1.05 in assay [2] (irradiation: none).
As to `C=CC1(C)CC(OC(=O)CSC(C)(C)CNC(=O)C(N)C(C)C)C2(C)C(C)CCC3(CCC(=O)C32)C(C)C1O.Cl` (centres undefined) [Valnemulin HCl], the NF-kB reporter in assay [1] (irradiation: 8 Gy/4 fr) was found to be 0.626; in assay [1] (irradiation: none), 1.47. Also, the ISRE reporter in assay [2] (irradiation: 8 Gy/4 fr) was found to be 0.628; in assay [2] (irradiation: none) it was 2.
Consider `CCOC(=O)/C=C(C)/C=C/C=C(C)/C=C/c1c(C)cc(OC)c(C)c1C` [Etretinate], for which the NF-kB reporter in assay [1] (irradiation: 8 Gy/4 fr) came to 0.599; in assay [1] (irradiation: none), 0.585. The ISRE reporter in assay [2] (irradiation: 8 Gy/4 fr) stood at 0.499; in assay [2] (irradiation: none), 0.416.
In the case of `CCCCCCCCCCCCCCCCCCC(=O)O` [Nonadecanoic acid], the NF-kB reporter in assay [1] (irradiation: 8 Gy/4 fr) was 1.34; in assay [1] (irradiation: none), 0.664. Besides, the values for the ISRE reporter in assay [2] (irradiation: 8 Gy/4 fr) and in assay [2] (irradiation: none) were 1.13 and 0.509, respectively.
For `Oc1cc(O)c2c(c1)OC(c1ccc(O)c(O)c1)C(OC1(c3ccc(O)c(O)c3)Oc3cc(O)cc(O)c3C(O)C1O)C2` (centres undefined) [Proanthocyanidins], the NF-kB reporter was found to be 0.776 in assay [1] (irradiation: 8 Gy/4 fr) and 0.633 in assay [1] (irradiation: none). Moreover, the ISRE reporter in assay [2] (irradiation: 8 Gy/4 fr) is 0.755; in assay [2] (irradiation: none), 0.819.
